# Source: the supplement of paper PMC3334620
# Whole data set: some 33,000 sequences, median “E-score (-0.5 to 0.5)” near -0.013, cut for the highest 2% near 0.3. Some of the results follow.
# Biological target: T1, Msn1 (UniProt P22148)
# T1 sequence: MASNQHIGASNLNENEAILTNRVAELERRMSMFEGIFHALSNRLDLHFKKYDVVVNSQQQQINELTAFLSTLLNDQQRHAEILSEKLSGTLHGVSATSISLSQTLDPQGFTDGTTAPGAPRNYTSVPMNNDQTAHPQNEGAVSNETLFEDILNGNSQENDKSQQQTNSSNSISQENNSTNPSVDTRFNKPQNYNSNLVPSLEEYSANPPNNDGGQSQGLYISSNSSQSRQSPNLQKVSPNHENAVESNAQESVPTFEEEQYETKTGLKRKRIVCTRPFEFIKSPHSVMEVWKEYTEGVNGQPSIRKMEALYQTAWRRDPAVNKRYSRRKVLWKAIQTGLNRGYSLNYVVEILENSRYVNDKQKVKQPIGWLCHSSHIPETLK
# Assay: PBM E-score (8-mer binding enrichment) (E-score (-0.5 to 0.5)); higher = stronger / more preferred TF binding; most listed sequences are background and not binding sites
# Details: protein concentration: 200 nM; construct: GST-full length
# Procedure: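 Universal 'all 10-mer' protein binding microarrays (Agilent AMADID 015681) probed with GST-tagged S. cerevisiae TFs (full-length or DBD) made by in vitro transcription/translation (PURExpress), about 100-200 nM. Bound TF was detected with fluorescent anti-GST. Each ungapped 8-mer (which stands for itself and its reverse complement) is scored by the PBM enrichment score (E-score), a modified Wilcoxon-Mann-Whitney statistic from -0.5 to +0.5, computed with the Universal PBM Analysis Suite. Scale: above 0.35 generally sequence-specific binding.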
row,Sequence,PBM E-score
1,AAGGGTCT,-0.293
2,CTGTACGA,0.0832
3,AGTGTGAG,-0.112
4,CGCCACCG,-0.181
5,CAAATCCA,0.0437
6,ATCTCATC,0.0128
7,AGCCTCAT,-0.195
8,AAGGACTT,0.347
9,CATGGTTA,0.0662
10,CGAACCCA,-0.133
11,AAACTCTC,-0.0224
12,CTCGCCTA,0.0586
13,CACTGTCA,0.0817
14,CAGGAAAA,-0.00083
15,CGCGAGAA,-0.0556
16,TACCTAGA,-0.0997
17,AAACAAAA,0.127
18,CCCGCAAA,-0.0161
19,ACAAAAAA,0.225
20,AACTAGGG,-0.0474
21,AACCTAAG,0.0615
22,GTCCATGA,0.248

row,Sequence,PBM E-score
1,GCGCGACC,-0.0207
2,CAGAAGGA,-0.0904
3,AACAGATG,0.0242
4,TTCTTAAA,-0.0303
5,CAGTTAAA,-0.00085
6,AGCCCTCG,-0.123
7,CCGTATGC,-0.102
8,CATGTGAG,-0.0689
9,GCGATAAC,-0.145
10,AAAAACCA,0.244
11,GGAAATCC,0.102
12,GACGACGA,-0.0942
13,CGAACTAA,-0.0033
14,CGCCTGCA,-0.0677
15,ACGGACTG,0.0922
16,TACAAATA,0.281
17,AAAGACAT,0.387
18,AGCCCGCT,-0.155
19,ATACGTCG,-0.0782
20,CGACCATA,0.086
21,GGTATTAA,-0.0168
22,AGACTGAG,-0.00524

row,Sequence,PBM E-score
1,CATTTGTA,0.36
2,CGGACCAC,-0.0995
3,AGGGGCAT,-0.193
4,AAAGTTAC,0.0837
5,ATTCCACG,0.0113
6,TGACACCA,0.00586
7,AGTGGCGA,-0.0214
8,GCAACATA,0.0435
9,CGGAAGCC,-0.0918
10,GTGTCTGA,0.185
11,GTGTCCTA,0.468
12,GCGAAGAA,-0.0414
13,AGTAGTGC,-0.19
14,TCGGGTAA,-0.0398
15,CGGCCTGC,-0.153
16,GCCTAAAC,0.0003
17,GGCGGCAA,-0.113
18,ATGGCCGA,0.0106
19,GCGGAGAC,0.186
20,AGCGCGTG,-0.133
21,GGGATGAC,0.0385
22,CCAGCTGG,0.182

row,Sequence,PBM E-score
1,TCACCGCA,-0.0728
2,CGTCATAG,-0.0255
3,GAACATAA,0.113
4,AACCGCGA,0.191
5,AGGGCGAC,-0.209
6,ACTTCCGA,0.019
7,CCACCTCC,-0.24
8,CGTTCAGC,-0.0105
9,ACCGTCAA,-0.0194
10,GAATACGC,-0.0133
11,AAGCCGAC,-0.0829
12,AGGCCCAC,-0.359
13,AACTTGGA,0.0755
14,AACCTCGA,0.0191
15,CTAAGAGC,-0.126
16,AAAAGTAT,0.17
17,AAGGAACC,0.0949
18,ACGGCGTA,0.0347
19,GTGTTCTA,0.0609
20,ATTTGAGA,0.13
21,AGCAAGCT,-0.128
22,AATCAACC,-0.189

row,Sequence,PBM E-score
1,AGAAGTGC,-0.19
2,AAAATACC,-0.0192
3,AAGACCCC,-0.145
4,CGAATCAC,-0.114
5,TAATGGAA,0.151
6,ACTCACCA,-0.135
7,ACGCTGAG,-0.0691
8,TAGACTGA,-0.073
9,CTTCTAAA,0.101
10,CGATCCAG,-0.133
11,GTTCGGCA,0.135
12,CTTTTCTA,-0.00561
13,ACGATGAT,-0.135
14,AGGTGGAT,-0.135
15,ATCAGTTA,0.044
16,AAGCGGAT,-0.0423
17,AAGACGTA,0.198
18,GACTAAGA,0.0562
19,ATGAGGTA,-0.0565
20,GGGTACTA,0.0129
21,AACGTTAG,0.0592
